Measurements as given in patent US20250295799A1, “ANTIBODY-DRUG CONJUGATES TARGETING GLYPICAN-3 AND METHODS OF USE” (Zymeworks BC Inc., priority 2022, published 2025).

B1: v36180-MT-GGFG-Compound 141 (conjugate)
heavy: EVQLVQSGAEVKKPGSSVKVSCKASGYTFTDYEMHWVRQAPGQGLEWIGAIDPETGDTAYNQKFKGRATLTADKSTSTAYMELSSLRSEDTAVYYCTRYFSFAYWGQGTLVTVSS[in this place human IgG1 constant region]
light: DVQMTQSPSSVSASVGDRVTITCRSSQSLRHSNGNTYLQWYQQKPGKAPKLLIYKVSNRFSGVPSRFSGSGSGTDFTLTISSLQPEDFATYFCYQSKHVPYTFGQGTKVEIKRTVAAPSVFIFPPSDEQLKSGTASVVCLLNNFYPREAKVQWKVDNALQSGNSQESVTEQDSKDSTYSLSSTLTLSKADYEKHKVYACEVTHQGLSSPVTKSFNRGEC
B2: v36180-MT-GGFG-Compound 140 (conjugate)
heavy: B1 heavy
light: B1 light
B3: v36180-MC-GGFG-AM-DXd1 (conjugate)
heavy: B1 heavy
light: B1 light

Experiments:
[1] = system: JHH-7 cell line-derived xenograft; assay: In vivo efficacy, cell line-derived xenograft; design: species or system BALB/c nude mice; conditions: Example 22, JHH-7 CDX
Description: (§1) The studies were carried out as follows. Cancer cells (Table 22.1) suspended in a 1:1 mixture of PBS and Matrigel® were injected subcutaneously into the right front flank region of 6-7 week old female BALB/c nude mice. Tumors were measured using a caliper and tumor volume (V, mm^3) was determined by the formula V=(L×W×W)/2, where L and W is the length and width of the tumor, respectively. When tumors reached a mean volume of ˜140 mm^3, mice were randomized into treatment groups (JHH-7: n=7 per group; NCI-H446: n=6 per group) and injected with a single intravenous dose of test article on day 0 (Table 22.2). Tumor volumes and body weights were monitored twice a week over a 28-day study period. Whole blood was collected retro-orbitally at multiple time points and processed to serum for pharmacokinetic (PK) analysis (as described in Example 23). All JHH-7 tumor-bearing mice were given dietary gel supplements from Day 4 to the end of study.
(§2) The studies were carried out as follows. Cancer cells suspended in a 1:1 mixture of PBS and Matrigel® were injected subcutaneously into the right front flank region of 8-10 week old female BALB/c nude mice as summarized in Table 24.1. When tumors reached a mean volume of 140-155 mm^3, mice were randomized into treatment groups (JHH-7: n=8 per group; NCI-H446: n=6 per group) and injected intravenously with a single dose of test article as identified in Table 24.2. Tumor volumes and body weights were monitored twice weekly over a 28-day study period as described in Example 22. Whole blood was collected retro-orbitally at multiple time points and processed to serum for future PK analysis. Dietary gel supplements were provided to all JHH-7 study mice from day 0 to end of study.
Cancer cells (Table 31.1) suspended in a 1:1 mixture of PBS and Matrigel® were injected subcutaneously into the right front flank region of 8-10 week old female BALB/c nude mice. […] Tumour volumes and body weights were monitored twice weekly over a 28-day study period as described in Example 22. […]

[2] = system: NCI-H446 cell line-derived xenograft; assay: In vivo efficacy, cell line-derived xenograft; design: species or system BALB/c nude mice; conditions: Example 22, NCI-H446 CDX
Description: as §1, §2

[3] = system: panel of GPC3-expressing cell lines; assay: In vitro cytotoxicity of ADCs, 2D monolayer cell culture, summary over cell lines; type: cell-based; conditions: across the cell lines tested
Description: (§3) SNU-475 hepatocellular carcinoma cells were also included as a potential GPC3-negative cell based on mRNA expression. […] In these experiments, the ability of the GPC3-targeting ADCs to specifically kill GPC3 expressing cells was assessed as was the difference in potency between ADCs having DAR8 or DAR4.
(§4) Briefly, cells were seeded in 384-well plates at 1,000 cells/well and treated with a titration of test article, generated in RPMI-1640 (Thermo Fisher Scientific; Cat. No. 15230-162)+10% FBS (Thermo Fisher Scientific; Cat. No. 12483-020). Cells were incubated for 4 days in RPMI-1640+10% FBS at 37° C./5% CO2. After incubation, CellTiter-Glo® reagent (Promega Corporation, Madison, WI) was added to all wells and luminescence corresponding to ATP present in each well was measured using a Synergy™ H1 plate reader (BioTek Instruments, Winooski, VT). The % cytotoxicity value for each treatment was calculated by the following formula: (1−(Luminescence of Treated Cells/Average Luminescence of Untreated Cells))×100. These values were plotted against test article concentration using GraphPad Prism 9 software (GraphPad Software, San Diego, CA).
(§5) The cell growth inhibition (cytotoxicity) capabilities of the humanized antibody BMS-986182 (v33624) and humanized variant M3-H1L1 (v36180) conjugated to various drug-linkers were assessed in a panel of GPC3-expressing cell lines as described below. […]

[4] = system: FU-97 (gastric carcinoma, GPC3-high); assay: In vitro cytotoxicity of ADCs, 2D monolayer cell culture (CellTiter-Glo); type: cell-based
Description: as §4
as §5, with “below. Cell lines used were GPC3-high FU-97 (gastric carcinoma), JHH-7 (hepatocellular carcinoma), and Hep3B (hepatocellular carcinoma), GPC3-mid NCI-H446 (lung carcinoma), Huh-6 (hepatoblastoma), and Huh-7 (hepatocellular carcinoma), and GPC3-low MKN-45 (gastric carcinoma) cells.” for “below.”

[5] = Stability of ADCs in mouse plasma (IP-MS); type: in vitro ADME; conditions: 1 mg/mL in CD1 mouse plasma, 37 °C, changes over 7 days; DAR8 ADCs
Description: ADCs were diluted to reach a final concentration of 1 mg/mL in CD1 mouse plasma from BioreclamationIVT™ (Catalog #MSE00PL38NCXNN). Samples were then incubated at 37° C. for a duration of 7 days. Samples were taken at various timepoints (0, 0.17, 1 and 7 days) and immediately frozen at −80° C. before proceeding with analysis by IP-MS.
IP-MS was performed as follows. […] Following coupling, the beads were incubated with test sample for 1.5 hrs at room temperature to allow for immunocapture. Following incubation and washing using DynaMag™-2 magnet (ThermoFisher Scientific™ Corporation, Waltham, MA), immunocaptured sample was reduced using 50 μL of dithiothreitol (DTT) in PBS (25 mM), pH 7.4, for 1 hr at room temperature. After reduction, sample was eluted by incubating with pH 3.0 buffer (distilled water containing 20% acetonitrile and 1% formic acid) for 1 hr at room temperature. Purified ADC samples were then analyzed by mass spectrometry to quantify DAR or drug loading or kept frozen at −80° C. until further analysis.
Extent of drug loading and percent maleimide ring opening at each time point was graphed using GraphPad Prism™ software (GraphPad Software™, San Diego, CA).

[6] = Pharmacokinetics of ADCs in efficacy model (total IgG ELISA); type: in vivo, NCI-H446 tumor-bearing BALB/c nude mice; conditions: NCI-H446 model; for Cmax: total IgG
Description: as §1
(§6) Sample data were analyzed using SoftMax® Pro 7.1 (Molecular Devices, San Jose, CA). Pharmacokinetics parameters were calculated from non-compartmental analysis using Phoenix WinNonlin™ software (Certara, Princeton, NJ).

[7] = system: Huh-7 (hepatocellular carcinoma, GPC3-mid); assay: In vitro cytotoxicity of ADCs, 2D monolayer cell culture (CellTiter-Glo); type: cell-based
Description: as §3, §4, §5

[8] = Pharmacokinetics of ADCs in efficacy model (total IgG ELISA); type: in vivo, JHH-7 tumor-bearing BALB/c nude mice; conditions: JHH7 model; for Cmax: total IgG
Description: as §1, §6

Molecule	anti-tumor activity, in words ([1]; single i.v. dose 3 mg/kg)	anti-tumor activity, in words ([2]; single i.v. dose 3 mg/kg)	cytotoxic potency compared between ADCs, in words [3]	Percent DAR Loss [5]	Percent Maleimide Ring Opening [5]	Total IgG Half-life ([6]; 3 mg/kg single iv)	Cmax ([6]; 3 mg/kg single iv)	Total IgG Half-life ([8]; 3 mg/kg single iv)	Cmax ([8]; 3 mg/kg single iv)	further results
B1	greater tumor growth inhibition compared to v36180-MC-GGFG-AM-DXd1 DAR8	tumor regression was observed at study termination in most mice	comparable cytotoxicity to v36180-MC-GGFG-AM-DXd1	22%	76%	125 h	67.2 µg/mL	146 h	74.1 µg/mL	cytotoxicity / targeted killing relative to non-targeting ADC, in words [4]: slight potency reduction; elimination half-life ([6]; dose not given): 137 h; cytotoxicity / targeted killing relative to non-targeting ADC, in words [7]: slight potency reduction; elimination half-life ([8]; dose not given): 146 h
B2	greater tumor growth inhibition compared to v36180-MC-GGFG-AM-DXd1 DAR8	tumor regression was observed at study termination in most mice	weaker potency compared to its DXd1 counterpart	30%	88%	–	–	–	–	–
B3	–	superior activity over v33624-MC-GGFG-AM-DXd1 DAR8	–	41%	35%	127 h	56.1 µg/mL	127 h	66.9 µg/mL	anti-tumor activity, in words ([1]; single i.v. dose, 3 mg/kg and 10 mg/kg): greater anti-tumor activity over the reference antibody v33624-MC-GGFG-AM-DXd1 DAR8; anti-tumor activity, in words ([2]; single i.v. dose 10 mg/kg): strongly inhibited tumor growth; Total IgG Half-life ([6]; 10 mg/kg single iv): 137 h; Cmax ([6]; 10 mg/kg single iv): 233.6 µg/mL; elimination half-life ([6]; 3 mg/kg dose): 127 h; Cmax ([6]; 3 mg/kg single i.v.): approximately 56 μg/mL; elimination half-life ([6]; 10 mg/kg dose): 137 h; Cmax ([6]; 10 mg/kg single i.v.): ~234 µg/mL; Total IgG Half-life ([8]; 10 mg/kg single iv): 144 h; Cmax ([8]; 10 mg/kg single iv): 271.5 µg/mL; elimination half-life ([8]; 3 mg/kg dose): 127 h; Cmax ([8]; 3 mg/kg single i.v.): approximately 67 μg/mL; elimination half-life ([8]; 10 mg/kg dose): 140 h; Cmax ([8]; 10 mg/kg single i.v.): ~271 µg/mL
